The labels stand for the following.
B1: CRTC1, Q6UUV9 (protein)
chain: MATSNNPRKFSEKIALHNQKQAEETAAFEEVMKDLSLTRAARLQLQKSQYLQLGPSRGQYYGGSLPNVNQIGSGTMDLPFQTPFQSSGLDTSRTTRHHGLVDRVYRERGRLGSPHRRPLSVDKHGRQADSCPYGTMYLSPPADTSWRRTNSDSALHQSTMTPTQPESFSSGSQDVHQKRVLLLTVPGMEETTSEADKNLSKQAWDTKKTGSRPKSCEVPGINIFPSADQENTTALIPATHNTGGSLPDLTNIHFPSPLPTPLDPEEPTFPALSSSSSTGNLAANLTHLGIGGAGQGMSTPGSSPQHRPAGVSPLSLSTEARRQQASPTLSPLSPITQAVAMDALSLEQQLPYAFFTQAGSQQPPPQPQPPPPPPPASQQPPPPPPPQAPVRLPPGGPLLPSASLTRGPQPPPLAVTVPSSLPQSPPENPGQPSMGIDIASAPALQQYRTSAGSPANQSPTSPVSNQGFSPGSSPQHTSTLGSVFGDAYYEQQMAARQANALSHQLEQFNMMENAISSSSLYSPGSTLNYSQAAMMGLTGSHGSLPDSQQLGYASHSGIPNIILTVTGESPPSLSKELTSSLAGVGDVSFDSDSQFPLDELKIDPLTLDGLHMLNDPDMVLADPATEDTFRMDRL
B2: NFKBIB, Q15653 (protein)
chain: MAGVACLGKAADADEWCDSGLGSLGPDAAAPGGPGLGAELGPGLSWAPLVFGYVTEDGDTALHLAVIHQHEPFLDFLLGFSAGTEYMDLQNDLGQTALHLAAILGETSTVEKLYAAGAGLCVAERRGHTALHLACRVGAHACARALLQPRPRRPREAPDTYLAQGPDRTPDTNHTPVALYPDSDLEKEEEESEEDWKLQLEAENYEGHTPLHVAVIHKDVEMVRLLRDAGADLDKPEPTCGRSPLHLAVEAQAADVLELLLRAGANPAARMYGGRTPLGSAMLRPNPILARLLRAHGAPEPEGEDEKSGPCSSSSDSDSGDEGDEYDDIVVHSSRSQTRLPPTPASKPLPDDPRPV
B3: MYOD1, P15172 (protein)
chain: MELLSPPLRDVDLTAPDGSLCSFATTDDFYDDPCFDSPDLRFFEDLDPRLMHVGALLKPEEHSHFPAAVHPAPGAREDEHVRAPSGHHQAGRCLLWACKACKRKTTNADRRKAATMRERRRLSKVNEAFETLKRCTSSNPNQRLPKVEILRNAIRYIEGLQALLRDQDAAPPGAAAAFYAPGPLPPGRGGEHYSGDSDASSPRSNCSDGMMDYSGPPSGARRRNCYEGAYYNEAPSEPRPGKSAAVSSLDCLSSIVERISTESPAAPALLLADVPSESPPRRQEAAAPSEGESSGDPTQSPDAAPQCPAGANPNPIYQVL
B4: TSC22D4, Q9Y3Q8 (protein)
chain: MSGGKKKSSFQITSVTTDYEGPGSPGASDPPTPQPPTGPPPRLPNGEPSPDPGGKGTPRNGSPPPGAPSSRFRVVKLPHGLGEPYRRGRWTCVDVYERDLEPHSFGGLLEGIRGASGGAGGRSLDSRLELASLGLGAPTPPSGLSQGPTSWLRPPPTSPGPQARSFTGGLGQLVVPSKAKAEKPPLSASSPQQRPPEPETGESAGTSRAATPLPSLRVEAEAGGSGARTPPLSRRKAVDMRLRMELGAPEEMGQVPPLDSRPSSPALYFTHDASLVHKSPDPFGAVAAQKFSLAHSMLAISGHLDSDDDSGSGSLVGIDNKIEQAMDLVKSHLMFAVREEVEVLKEQIRELAERNAALEQENGLLRALASPEQLAQLPSSGVPRLGPPAPNGPSV
B5: RARA, P10276 (protein)
chain: MASNSSSCPTPGGGHLNGYPVPPYAFFFPPMLGGLSPPGALTTLQHQLPVSGYSTPSPATIETQSSSSEEIVPSPPSPPPLPRIYKPCFVCQDKSSGYHYGVSACEGCKGFFRRSIQKNMVYTCHRDKNCIINKVTRNRCQYCRLQKCFEVGMSKESVRNDRNKKKKEVPKPECSESYTLTPEVGELIEKVRKAHQETFPALCQLGKYTTNNSSEQRVSLDIDLWDKFSELSTKCIIKTVEFAKQLPGFTTLTIADQITLLKAACLDILILRICTRYTPEQDTMTFSDGLTLNRTQMHNAGFGPLTDLVFAFANQLLPLEMDDAETGLLSAICLICGDRQDLEQPDRVDMLQEPLLEALKVYVRKRRPSRPHMFPKMLMKITDLRSISAKGAERVITLKMEIPGSMPPLIQEMLENSEGLDTLSGQPGGGGRDGGGLAPPPGSCSPSLSPSSNRSSPATHSP
B6: POU2F1, P14859 (protein)
chain: MNNPSETSKPSMESGDGNTGTQTNGLDFQKQPVPVGGAISTAQAQAFLGHLHQVQLAGTSLQAAAQSLNVQSKSNEESGDSQQPSQPSQQPSVQAAIPQTQLMLAGGQITGLTLTPAQQQLLLQQAQAQAQLLAAAVQQHSASQQHSAAGATISASAATPMTQIPLSQPIQIAQDLQQLQQLQQQNLNLQQFVLVHPTTNLQPAQFIISQTPQGQQGLLQAQNLLTQLPQQSQANLLQSQPSITLTSQPATPTRTIAATPIQTLPQSQSTPKRIDTPSLEEPSDLEELEQFAKTFKQRRIKLGFTQGDVGLAMGKLYGNDFSQTTISRFEALNLSFKNMCKLKPLLEKWLNDAENLSSDSSLSSPSALNSPGIEGLSRRRKKRTSIETNIRVALEKSFLENQKPTSEEITMIADQLNMEKEVIRVWFCNRRQKEKRINPPSSGGTSSSPIKAIFPSPTSLVATTPSLVTSSAATTLTVSPVLPLTSAAVTNLSVTGTSDTTSNNTATVISTAPPASSAVTSPSLSPSPSASASTSEASSASETSTTQTTSTPLSSPLGTSQVMVTASGLQTAAAAALQGAAQLPANASLAAMAAAAGLNPSLMAPSQFAAGGALLSLNPGTLSGALSPALMSNSTLATIQALASGGSLPITSLDATGNLVFANAGGAPNIVTAPLFLNPQNLSLLTSNPVSLVSAAAASAGNSAPVASLHATSTSAESIQNSLFTVASASGAASTTTTASKAQ
B7: GSX1, Q9H4S2 (protein)
chain: MPRSFLVDSLVLREAGEKKAPEGSPPPLFPYAVPPPHALHGLSPGACHARKAGLLCVCPLCVTASQLHGPPGPPALPLLKASFPPFGSQYCHAPLGRQHSAVSPGVAHGPAAAAAAAALYQTSYPLPDPRQFHCISVDSSSNQLPSSKRMRTAFTSTQLLELEREFASNMYLSRLRRIEIATYLNLSEKQVKIWFQNRRVKHKKEGKGSNHRGGGGGGAGGGGSAPQGCKCASLSSAKCSEDDDELPMSPSSSGKDDRDLTVTP
B8: ERBB2IP, Q96RT1 (protein)
chain: MTTKRSLFVRLVPCRCLRGEEETVTTLDYSHCSLEQVPKEIFTFEKTLEELYLDANQIEELPKQLFNCQSLHKLSLPDNDLTTLPASIANLINLRELDVSKNGIQEFPENIKNCKVLTIVEASVNPISKLPDGFSQLLNLTQLYLNDAFLEFLPANFGRLTKLQILELRENQLKMLPKTMNRLTQLERLDLGSNEFTEVPEVLEQLSGLKEFWMDANRLTFIPGFIGSLKQLTYLDVSKNNIEMVEEGISTCENLQDLLLSSNSLQQLPETIGSLKNITTLKIDENQLMYLPDSIGGLISVEELDCSFNEVEALPSSIGQLTNLRTFAADHNYLQQLPPEIGSWKNITVLFLHSNKLETLPEEMGDMQKLKVINLSDNRLKNLPFSFTKLQQLTAMWLSDNQSKPLIPLQKETDSETQKMVLTNYMFPQQPRTEDVMFISDNESFNPSLWEEQRKQRAQVAFECDEDKDEREAPPREGNLKRYPTPYPDELKNMVKTVQTIVHRLKDEETNEDSGRDLKPHEDQQDINKDVGVKTSESTTTVKSKVDEREKYMIGNSVQKISEPEAEISPGSLPVTANMKASENLKHIVNHDDVFEESEELSSDEEMKMAEMRPPLIETSINQPKVVALSNNKKDDTKETDSLSDEVTHNSNQNNSNCSSPSRMSDSVSLNTDSSQDTSLCSPVKQTHIDINSKIRQEDENFNSLLQNGDILNSSTEEKFKAHDKKDFNLPEYDLNVEERLVLIEKSVDSTATADDTHKLDHINMNLNKLITNDTFQPEIMERSKTQDIVLGTSFLSINSKEETEHLENGNKYPNLESVNKVNGHSEETSQSPNRTEPHDSDCSVDLGISKSTEDLSPQKSGPVGSVVKSHSITNMEIGGLKIYDILSDNGPQQPSTTVKITSAVDGKNIVRSKSATLLYDQPLQVFTGSSSSSDLISGTKAIFKFDSNHNPEEPNIIRGPTSGPQSAPQIYGPPQYNIQYSSSAAVKDTLWHSKQNPQIDHASFPPQLLPRSESTENQSYAKHSANMNFSNHNNVRANTAYHLHQRLGPARHGEMWAISPNDRLIPAVTRSTIQRQSSVSSTASVNLGDPGSTRRAQIPEGDYLSYREFHSAGRTPPMMPGSQRPLSARTYSIDGPNASRPQSARPSINEIPERTMSVSDFNYSRTSPSKRPNARVGSEHSLLDPPGKSKVPRDWREQVLRHIEAKKLEKKHPQTSSSGDPCQDGIFISGQQNYSSATLSHKDVPPDSLMKMPLSNGQMGQPLRPQANYSQIHHPPQASVARHPSREQLIDYLMLKVAHQPPYTQPHCSPRQGHELAKQEIRVRVEKDPELGFSISGGVGGRGNPFRPDDDGIFVTRVQPEGPASKLLQPGDKIIQANGYSFINIEHGQAVSLLKTFQNTVELIIVREVSS
B9: IRF4, Q15306 (protein)
chain: MNLEGGGRGGEFGMSAVSCGNGKLRQWLIDQIDSGKYPGLVWENEEKSIFRIPWKHAGKQDYNREEDAALFKAWALFKGKFREGIDKPDPPTWKTRLRCALNKSNDFEELVERSQLDISDPYKVYRIVPEGAKKGAKQLTLEDPQMSMSHPYTMTTPYPSLPAQQVHNYMMPPLDRSWRDYVPDQPHPEIPYQCPMTFGPRGHHWQGPACENGCQVTGTFYACAPPESQAPGVPTEPSIRSAEALAFSDCRLHICLYYREILVKELTTSSPEGCRISHGHTYDASNLDQVLFPYPEDNGQRKNIEKLLSHLERGVVLWMAPDGLYAKRLCQSRIYWDGPLALCNDRPNKLERDQTCKLFDTQQFLSELQAFAHHGRSLPRFQVTLCFGEEFPDPQRQRKLITAHVEPLLARQLYYFAQQNSGHFLRGYDLPEHISNPEDYHRSIRHSSIQE

This is one part of the list. Binding of human transcription factors and regulators to the viral nucleoprotein by AlphaScreen, crude cell-free proteins, amounts not normalised, one pass. Fold of the Venus control; higher = more signal. No active / inactive call. Single-pass screen; sequences are the whole Swiss-Prot entries looked up by name.

The assay addresses nucleoprotein N of Crimean-Congo hemorrhagic fever virus. The experiment in a line: AlphaScreen luminescence signal relative to Venus negative control (fold); higher = stronger binding to CCHFV N. Here is the method:
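AlphaScreen binding of cell-free made, FLAG-GST-tagged human transcription factors and regulators (crude translation products) to biotinylated N protein; signal as fold of the FLAG-GST-Venus control. One pass.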
B1 yielded an AlphaScreen luminescence signal of 2.14.

The molecule B2 returned an AlphaScreen luminescence signal of 1.63.

B3 came in with an AlphaScreen luminescence signal of 2.23.

B4 registered an AlphaScreen luminescence signal of 1.81.

Molecule B5 yielded an AlphaScreen luminescence signal of 3.77.

In turn, B6 yielded an AlphaScreen luminescence signal of 3.07.

B7 displayed an AlphaScreen luminescence signal of 2.37.

With B8, the AlphaScreen luminescence signal is 1.67.

As for B9, the AlphaScreen luminescence signal was 3.3.
